Test results: the supplement of paper PMC11369174, “Proteome-scale characterisation of motif-based interactome rewiring by disease mutations” (Molecular Systems Biology, 2024)
The list shows a part of the results. Values come from read counts of a selection and are noisy.

Target: CREBBP_NCBD__Q92793_2062_2109
Assay: mean normalised NGS count of phage-displayed peptide after selection on bait (% of reads); baits are purified protein domains named by gene / domain / UniProt id / residues; peptides come from disordered regions of human proteins; higher = stronger enrichment / binding
Conditions: replicate selections in which the peptide was seen: 3

Binder | mean normalised NGS count
SGLNMGELIAWMVRNM [CAPN3 279-294 mut P20807.R289W] | 2.16
DDADALGSMLISWYMS [SMN1 255-270 wt] | 2.7

Target: T1, CSK21_Pkinase__P68400_1_335
T1 chain: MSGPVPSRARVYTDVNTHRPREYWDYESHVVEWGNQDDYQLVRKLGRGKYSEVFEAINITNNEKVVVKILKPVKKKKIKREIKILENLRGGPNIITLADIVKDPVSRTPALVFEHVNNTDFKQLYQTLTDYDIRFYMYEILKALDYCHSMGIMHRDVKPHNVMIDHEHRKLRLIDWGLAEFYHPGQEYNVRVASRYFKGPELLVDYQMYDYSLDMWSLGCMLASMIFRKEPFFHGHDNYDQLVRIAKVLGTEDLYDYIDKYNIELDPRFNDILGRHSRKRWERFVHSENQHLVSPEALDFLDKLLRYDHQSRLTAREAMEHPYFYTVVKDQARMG
Assay: as above
Conditions: replicate selections in which the peptide was seen: 4

Binder | mean normalised NGS count
MGPWGWKLRWTVALLP [LDLR 1-16 mut P01130.L16P] | 0.0371

Same assay, conditions: replicate selections in which the peptide was seen: 3

Binder | mean normalised NGS count
LLTQLDGVEGLQGVYV [PEX1 964-979 wt] | 0.226
TLDQQLGRVLGEVAPI [NPC1 719-734 mut O15118.S734I] | 0.174
FTWVEKDISGKTQIQS [STAT3 621-636 wt] | 4.55
VILSMVNNRSLDLDSI [KRT1 335-350 mut P04264.D340V] | 0.478

Target: MK08_Pkinase__P45983_1_363
Assay: as above
Conditions: replicate selections in which the peptide was seen: 4

Sequence of MK08_Pkinase__P45983_1_363 (chain, as listed by the source): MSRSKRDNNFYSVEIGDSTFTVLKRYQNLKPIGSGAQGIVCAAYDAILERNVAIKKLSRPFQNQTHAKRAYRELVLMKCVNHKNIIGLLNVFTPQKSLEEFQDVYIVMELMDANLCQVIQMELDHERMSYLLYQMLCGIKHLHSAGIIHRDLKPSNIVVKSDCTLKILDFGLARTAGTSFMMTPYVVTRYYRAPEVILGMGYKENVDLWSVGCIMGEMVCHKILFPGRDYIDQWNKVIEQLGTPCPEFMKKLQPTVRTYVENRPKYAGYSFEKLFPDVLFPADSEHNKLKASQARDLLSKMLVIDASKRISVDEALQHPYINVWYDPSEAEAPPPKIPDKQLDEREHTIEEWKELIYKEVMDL

Binder | mean normalised NGS count
LLTQLDGVEGLQGVYV [PEX1 964-979 wt] | 0.152

Target: T2, CLTC_Clathrin-propeller__Q00610_1_364
T2 chain: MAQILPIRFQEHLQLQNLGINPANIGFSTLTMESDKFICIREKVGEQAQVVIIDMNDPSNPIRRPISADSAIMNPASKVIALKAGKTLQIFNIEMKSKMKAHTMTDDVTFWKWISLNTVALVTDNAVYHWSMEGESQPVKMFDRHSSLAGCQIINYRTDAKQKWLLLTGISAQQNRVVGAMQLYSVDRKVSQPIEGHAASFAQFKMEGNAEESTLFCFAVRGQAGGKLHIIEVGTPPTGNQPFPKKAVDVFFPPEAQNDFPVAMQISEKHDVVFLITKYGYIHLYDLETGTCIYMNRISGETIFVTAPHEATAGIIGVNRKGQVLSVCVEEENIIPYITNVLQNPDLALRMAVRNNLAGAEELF
Assay: as above
Conditions: replicate selections in which the peptide was seen: 6

Binder | mean normalised NGS count
DLLDFHQDLLAHAGIQ [RYR1 2030-2045 wt] | 3.2
VTLINFWPVDSVPASS [DMD 3410-3425 mut P11532.A3421V] | 2.89
NLLSFEDSTTGGVQQK [WRN 316-331 wt] | 0.831
PVSGNLIDLYGNQGLP [MITF 256-271 wt] | 0.248
METPVTLINFWPVDSV [DMD 3406-3421 mut P11532.A3421V] | 36.2
VATGNLLDLEETAKAP [LDLRAP1 207-222 wt] | 0.0203
NLLDLEETAKAPLSTV [LDLRAP1 211-226 wt] | 0.0228

Target: CREBBP_KIX__Q92793_587_673
Assay: as above
Conditions: replicate selections in which the peptide was seen: 6

Binder | mean normalised NGS count
MEASELLRYLQEAFHV [UNC13D 76-91 mut Q70J99.T76M] | 68.7

Target: CREBBP_NCBD__Q92793_2062_2109
Assay: as above
Conditions: replicate selections in which the peptide was seen: 5

Binder | mean normalised NGS count
MEASELLRYLQEAFHV [UNC13D 76-91 mut Q70J99.T76M] | 91.8
TEASELLRYLQEAFHV [UNC13D 76-91 wt] | 1.46

Target: T3, CHD1_tandem-chromo__O14646_268_443
T3 chain: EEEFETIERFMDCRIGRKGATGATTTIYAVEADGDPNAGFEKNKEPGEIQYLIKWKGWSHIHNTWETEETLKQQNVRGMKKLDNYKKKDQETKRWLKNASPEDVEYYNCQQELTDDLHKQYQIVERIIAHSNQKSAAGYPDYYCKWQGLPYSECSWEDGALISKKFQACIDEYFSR
Assay: as above
Conditions: replicate selections in which the peptide was seen: 3

Binder | mean normalised NGS count
ASLIRGNSSNAALFST [RYR1 526-541 mut P21817.R533S] | 25.1

Target: T2, CLTC_Clathrin-propeller__Q00610_1_364
Assay: as above
Conditions: replicate selections in which the peptide was seen: 5

Binder | mean normalised NGS count
NLLDLEEIAKAPLSTV [LDLRAP1 211-226 mut Q5SW96.T218I] | 0.00483

Target: MDM2_p53-binding-domain__Q00987_17_125
Assay: as above
Conditions: replicate selections in which the peptide was seen: 2

Binder | mean normalised NGS count
TEASELLRYLQEAFHV [UNC13D 76-91 wt] | 4.41

Target: T1, CSK21_Pkinase__P68400_1_335
Assay: as above
Conditions: replicate selections in which the peptide was seen: 2

Binder | mean normalised NGS count
AAWRVLEMPAPADDSS [ZNF469 2967-2982 mut Q96JG9.G2971V] | 0.12
WYLQTALEGLGGVIDA [ROM1 287-302 mut Q03395.R287W] | 0.317

Target: T4, EPHA3_Pkinase__P29320_606_947
T4 chain: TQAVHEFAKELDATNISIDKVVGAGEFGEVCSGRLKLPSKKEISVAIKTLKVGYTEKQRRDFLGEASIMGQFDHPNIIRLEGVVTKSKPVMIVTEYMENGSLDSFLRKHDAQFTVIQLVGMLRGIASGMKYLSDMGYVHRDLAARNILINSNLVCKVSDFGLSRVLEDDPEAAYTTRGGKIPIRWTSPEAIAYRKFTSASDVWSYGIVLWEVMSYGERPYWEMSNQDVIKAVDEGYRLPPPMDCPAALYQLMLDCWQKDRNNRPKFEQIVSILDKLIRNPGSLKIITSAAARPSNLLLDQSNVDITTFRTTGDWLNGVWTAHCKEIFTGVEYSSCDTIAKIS
Assay: as above
Conditions: replicate selections in which the peptide was seen: 3

Binder | mean normalised NGS count
AAWRVLEMPAPADDSS [ZNF469 2967-2982 mut Q96JG9.G2971V] | 0.0629

Target: MK08_Pkinase__P45983_1_363
Assay: as above
Conditions: replicate selections in which the peptide was seen: 2

Binder | mean normalised NGS count
VILSMVNNRSLDLDSI [KRT1 335-350 mut P04264.D340V] | 0.0913

Target: BRD4_NET__O60885_601_683
Assay: as above
Conditions: replicate selections in which the peptide was seen: 4

Sequence of BRD4_NET__O60885_601_683 (chain, as listed by the source): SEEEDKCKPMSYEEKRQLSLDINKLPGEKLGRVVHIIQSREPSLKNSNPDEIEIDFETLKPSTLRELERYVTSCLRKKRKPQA

Binder | mean normalised NGS count
QVTTYLHKDYNNLWII [POMT2 372-387 wt] | 0.0829

Target: T5, Bub1_TPR__O43683_1_150
T5 chain: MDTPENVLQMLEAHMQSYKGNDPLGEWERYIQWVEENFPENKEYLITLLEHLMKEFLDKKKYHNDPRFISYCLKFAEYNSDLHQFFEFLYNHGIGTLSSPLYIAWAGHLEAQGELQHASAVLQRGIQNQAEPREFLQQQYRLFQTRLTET
Assay: as above
Conditions: replicate selections in which the peptide was seen: 5

Binder | mean normalised NGS count
LFEDLLRQMSDLRLQA [SPART 322-337 wt] | 83.1

Target: T2, CLTC_Clathrin-propeller__Q00610_1_364
Assay: as above
Conditions: replicate selections in which the peptide was seen: 2

Binder | mean normalised NGS count
AGLPYAWNADTDLVSW [PQBP1 60-75 mut O60828.Y65C] | 0.0034

Target: T6, GGA1_VHS__Q9UJY5_1_157
T6 chain: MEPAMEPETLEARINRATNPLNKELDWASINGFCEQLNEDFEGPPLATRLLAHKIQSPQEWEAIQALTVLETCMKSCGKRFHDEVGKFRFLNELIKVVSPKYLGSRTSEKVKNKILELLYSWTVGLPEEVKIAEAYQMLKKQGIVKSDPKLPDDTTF
Assay: as above
Conditions: replicate selections in which the peptide was seen: 3

Binder | mean normalised NGS count
AGLPYAWNADTDLVSW [PQBP1 60-75 mut O60828.Y65C] | 0.0451

Target: BRD4_NET__O60885_601_683
Assay: as above
Conditions: replicate selections in which the peptide was seen: 3

Binder | mean normalised NGS count
WGEQLLRARAGQDISA [FA2H 45-60 mut Q7L5A8.G45W] | 0.0687

Target: CREBBP_NCBD__Q92793_2062_2109
Assay: as above
Conditions: replicate selections in which the peptide was seen: 2

Binder | mean normalised NGS count
REEKLTDWQKLAALLF [RBM10 749-764 mut P98175.C764F] | 0.138

Target: T7, EPHB2_Pkinase__P29323_604_898
T7 chain: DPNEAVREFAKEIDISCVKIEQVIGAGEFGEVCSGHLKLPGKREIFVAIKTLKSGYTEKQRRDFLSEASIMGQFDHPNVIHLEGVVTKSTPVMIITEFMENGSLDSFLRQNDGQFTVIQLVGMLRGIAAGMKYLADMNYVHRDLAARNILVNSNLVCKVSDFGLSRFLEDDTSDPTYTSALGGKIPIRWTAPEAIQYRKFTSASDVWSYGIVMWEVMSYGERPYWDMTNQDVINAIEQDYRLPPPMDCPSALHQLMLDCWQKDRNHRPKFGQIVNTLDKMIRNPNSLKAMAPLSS
Assay: as above
Conditions: replicate selections in which the peptide was seen: 3

Binder | mean normalised NGS count
WYLQTALEGLGGVIDA [ROM1 287-302 mut Q03395.R287W] | 0.204
